Results as given in PubChem BioAssay AID1458 (National Center for Advancing Translational Sciences (NCATS), 2008).
About 5,900 (2.8%) of roughly 210,000 compounds were called active. Inconclusive means that the source gave no clear call. Such entries were picked first, then a sample of the others. The call rests on the fitted dose curve; in most records, active means well fitted activation curve with a large enough effect; inconclusive means small, poorly fitted or top-dose-only effect; inactive means no such curve, though single readings can be large or run the other way. Where the call is inconclusive, the potency comes from a doubtful curve fit.

assay: qHTS Assay for Enhancers of SMN2 Splice Variant Expression; conditions: HEK293 SMN2-luciferase splicing reporter, luminescence, 30-36 h; activity change, positive = activation: at 46.1 µM (top of the series); further: nearly all actives have a fitted effect of over 55% in size; on activity change, positive = activation: % of control where 0% means no effect
Method in brief: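 qHTS luciferase splicing reporter: luminescence rises when SMN2 exon 7 is included in transfected HEK293 cells. Compound exposure lasted 30-36 h at 37C, with 4.5 mM final sodium butyrate as control, followed by a ONE-Glo read.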
Potency means the concentration at half of the fitted maximal effect; tags describe the fitted curve by direction and shape.

SMILES	activity change, positive = activation	Potency
CC(=O)CSc1nnc(Cc2ccc([N+](=O)[O-])cc2)o1	inactive: 7.62%	–
C=CCOC(=O)N[C@H](/C(C(=O)OC)=C(\C)NCc1ccccc1)c1ccc(Br)cc1	inactive: 0.82%	–
CC(C)(C)c1ccc(-c2nc(NCc3cccnc3)c3ccccc3n2)cc1	–	active: 25.1 µM
COc1ccccc1N1CC(O)=C(c2nc3ccccc3s2)C1=N	–	inconclusive: 5.62 µM [activator, full curve]
Cc1ccc(-c2nn(-c3ccccc3)cc2/C=N/NC(=O)CSc2nnc(C)n2-c2ccccc2)cc1	–	inconclusive: 35.5 µM [activator, single point]
CC(C)CN1C(=O)CC(Sc2ccccc2C(=O)O)C1=O (stereo not drawn)	inactive: 28.4%	–
CSc1nc2ccccc2n1C(=O)NC1CCCCC1	–	inconclusive: 5.62 µM [activator, full curve, poor fit]
O=C1c2ccccc2C(=O)N1CCCOc1ccccc1	–	inconclusive: 31.6 µM [activator, partial curve, poor fit]
COc1cc(CC(=O)OCC(=O)Nc2ncc(Cl)cc2Cl)cc(OC)c1OC	inactive: -8.28%	–
CN(C)C(CNC(=O)c1ccc2ccccc2c1)c1ccco1 (stereo not drawn)	–	inconclusive: 11.2 µM [activator, partial curve]
COC(=O)[C@H](Cc1ccccc1)NC(=O)Nc1ccc(C)cc1	–	inconclusive: 11.2 µM [activator, partial curve, poor fit]
O=C(NCc1ccco1)Nc1ccc(Br)cc1Cl	–	inconclusive: 22.4 µM [activator, partial curve]
O=C(CN1CCOCC1)Nc1nc2ccc(F)cc2s1	inactive: 3.51%	–
Cc1ccc(OCC(=O)NC(=S)Nc2ccc(Br)cn2)cc1C	inactive: 9.07%	–
CCOCc1cnc(C)nc1NCC(=O)c1c(C)[nH]c2ccc(OC)cc12	–	inconclusive: 20 µM [activator, partial curve]
Cc1onc(-c2ccccc2Cl)c1C(=O)Nc1nnc(-c2ccc(Cl)cc2Cl)s1	inactive: 0.412%	–
Cc1c(F)cccc1NC(=O)CCC(=O)O	–	inconclusive: 0.562 µM [activator, full curve]
Cc1cc(Nc2ccccc2)nc2cc(O)ccc12	inactive: -5.75%	–
N#CCCn1cc(C=C(C#N)C#N)c(-c2ccc(-c3ccccc3)cc2)n1	–	inconclusive: 25.1 µM [activator, single point]
O=C(Nc1ccccc1)Nc1ccc(Br)cc1F	–	active: 12.6 µM
CCCc1nnc(NC(=O)NCCN2C(=O)C3C4C=CC(C4)C3C2=O)s1 (stereo not drawn)	–	inconclusive: 3.16 µM [activator, single point]
O=C(NCCn1ccc2ccccc21)c1ccc(S(=O)(=O)N2CCOCC2)cc1	inactive: -11.1%	–
Cc1ccc(S(=O)(=O)Nc2nc(C)c(C(=O)Nc3ccccc3)s2)cc1	–	inconclusive: 0.355 µM [activator, full curve, poor fit]
CCCn1c(-c2ccc(F)cc2)nc2c(NCC(C)(C)CN(C)C)nc(C)nc21	inactive: -7.21%	–
CC(C)(C)c1nc2scc(-c3ccc(Cl)cc3)c2c(=O)o1	inactive: 19.3%	–

SMILES	activity change, positive = activation	Potency
O=C(c1cc2cc(Br)ccc2o1)N1CCCCC1	–	active: 11.2 µM
COc1cc(-c2nnc(SCC(=O)N3c4ccccc4Sc4ccccc43)o2)cc(OC)c1OC	inactive: -24.5%	–
CCSc1nnc(NC(=O)Cc2cccc(OC)c2)s1	–	inconclusive: 3.55 µM [activator, single point]
Cc1nc(-c2ccccc2Cl)sc1C(=O)/C=C/N(C)C	–	inconclusive: 22.4 µM [activator, partial curve]
CS(=O)(=O)N1CCN(C2CCN(Cc3ccccc3)CC2)CC1	–	inconclusive: 2.51 µM [activator, partial curve, poor fit]
CCOCCn1cnc2sc(C(=O)Nc3nc(C)c(C(=O)OCC)s3)c(C)c2c1=O	inactive: -11.6%	–
O=C(Nc1ccc2cn[nH]c2c1)c1ccccc1F	–	active: 11.2 µM
C=CCn1c(-c2cc(-c3ccc(C)cc3)nc3ccccc23)n[nH]c1=S	inactive: 3.88%	–
COC(=O)c1c(C)[nH]c(C(=O)/C=C/c2cccc(Cl)c2)c1C	–	inconclusive: 1.58 µM [activator, full curve, poor fit]
O=C(/C=C/c1cccc(Cl)c1)c1nc2ccccc2[nH]1	inactive: -100%	–
O=C(c1cnn2c(C(F)F)cc(-c3ccccc3)nc12)N1CCOCC1	–	inconclusive: 5.62 µM [activator, single point]
COc1ccc(NC(=O)/C(C#N)=C/c2ccc(C)o2)cc1	–	active: 12.6 µM
Cc1[nH]c2ccccc2c1C(=O)CSC(=S)N1CCCCC1	–	active: 8.91 µM
CC(Oc1ccc(Cl)cc1Cl)c1nc(-c2ccc(NC(=O)c3ccccn3)cc2)no1 (stereo not drawn)	–	inconclusive: 20 µM [activator, partial curve, poor fit]
O=C1CCCN1c1ccc(S(=O)(=O)N2CCN(c3ccccn3)CC2)cc1	inactive: -28.8%	–
O=C(CN1C(=O)c2ccccc2S1(=O)=O)N1CCOCC1	–	inconclusive: 3.98 µM [activator, full curve, poor fit]
CCOC(=O)c1[nH]c2ccc(OC)cc2c1NC(=O)/C=C/c1ccc2c(c1)OCO2	–	inconclusive: 5.62 µM [activator, single point]
COc1ccc(/C=C2\SC(=O)N=C2N)cc1	–	inconclusive: 5.62 µM [activator, single point]
CCCOC(=O)c1ccc(NC(=O)c2ccoc2C)cc1	–	inconclusive: 0.631 µM [activator, partial curve]
O=C1CN(CC(=O)Nc2cccc(Cl)c2Cl)c2ccccc2N1	inactive: -3.85%	–
Cc1cc2c(cc1C)C(c1cccc(OC(C)C)c1)CC(=O)N2 (stereo not drawn)	inactive: 5.65%	–
CCCCN(C)CCCNC(=O)Cn1nc(CC)n2c(cc3sc(C)cc32)c1=O	inactive: -3.68%	–
O=[N+]([O-])c1nn(-c2ccc3c(c2)OCCO3)n(O)c1=NCc1ccc(F)cc1	–	active: 3.98 µM
CC(C)Sc1nc2ccc(N3C(=O)C4CCCCC4C3=O)cc2s1 (stereo not drawn)	–	inconclusive: 15.8 µM [activator, single point]
CCC1(C)N=C(c2ccc3c(c2)OCO3)CC(c2ccccc2O)N1 (stereo not drawn)	–	inconclusive: 4.47 µM [activator, partial curve, poor fit]

SMILES	activity change, positive = activation	Potency
Cc1ccc(Nc2ncnc3sc(C)c(C)c23)cc1	–	inconclusive: 22.4 µM [activator, single point]
Cc1cc(N2CCOCC2)nc(-c2ccc(Br)cc2)n1	–	inconclusive: 5.62 µM [activator, single point]
c1ccc(-c2cc(-c3nc(-c4cccnc4)no3)c3ccccc3n2)cc1	inactive: -20.5%	–
O=C(CSc1n[nH]c(-c2ccccc2)n1)c1ccc(O)c(O)c1	–	inconclusive: 15.8 µM [activator, single point]
O=C(NC1CC(=O)c2sccc21)c1ccc(Cl)cc1Cl (stereo not drawn)	–	active: 5.01 µM
CC1(C)CC(=O)C2=C(C1)N(Cc1ccco1)C(=O)C2(NC(=O)C1CCCCC1)C(F)(F)F (stereo not drawn)	–	inconclusive: 11.2 µM [activator, partial curve, poor fit]
COC(CNC(=O)C(C)n1nc(C)c2ccccc21)OC (stereo not drawn)	–	inconclusive: 3.98 µM [activator, single point]
COc1cc2c3c(c1)/C(=C1/SC(NC(C)=O)=NC1=O)C(=O)N3C(C)(C)C=C2C	–	inconclusive: 0.01 µM [activator, full curve, poor fit]
CCCc1nc2sc3c(c2c(=O)n1NC(=O)CCC(=O)O)CCCC3	inactive: 9.57%	–
COc1ccccc1NS(=O)(=O)c1ccc(NC(=O)c2nc3nc(C)cc(C(F)F)n3n2)cc1	–	inconclusive: 5.01 µM [activator, single point]
O=C(NCCc1ccccc1)c1cc2ncc(Br)cn2n1	–	inconclusive: 22.4 µM [activator, partial curve, poor fit]
Cc1cc2ncn(C(=O)N3CCCCCC3)c2cc1C	–	inconclusive: 25.1 µM [activator, single point]
O=C(CSc1ccc(-c2ccccc2)nn1)N1CCCCC1	–	inconclusive: 20 µM [activator, partial curve]
COc1ccc(NC(=O)c2c(Cl)n(C)c3ccccc23)cc1	–	inconclusive: 12.6 µM [activator, single point]
Cc1cccc(N2CCN(C(=O)c3ccc4nc[nH]c4c3)CC2)c1C	–	inconclusive: 0.794 µM [activator, full curve]
Cc1cc2nc(-c3ccc(SCC(=O)NC(C)C)nc3)[nH]c2cc1C	–	inconclusive: 2 µM [activator, full curve, poor fit]
Cc1ccc(CSc2ncnc3c2cnn3-c2ccc(C)cc2)cc1	–	inconclusive: 12.6 µM [activator, partial curve, poor fit]
COc1ccc(CCNC(=O)CCCCn2c(=O)c3ccccc3n(CC(=O)Nc3c(C)cccc3C)c2=O)cc1OC	–	inconclusive: 11.2 µM [activator, partial curve, poor fit]
O=C(Nc1ccc2c(c1)OCO2)c1nn(-c2ccccc2)c(=O)c2ccccc12	inactive: -24.6%	–
CCCCC1=CC2=CC(=O)C(C)(OC(=O)CC)C(=O)C2=CN1CCCN(CC)CC (stereo not drawn)	inactive: -1.42% [at 9.22 µM]	–
Cn1nc(C(=O)Nc2cccnc2)c2ccccc2c1=O	–	inconclusive: 35.5 µM [activator, partial curve]
O=S(=O)(c1ccccc1)N1CCSC1c1ccco1 (stereo not drawn)	–	inconclusive: 0.708 µM [activator, full curve, poor fit]
O=C1CCCC2=C1C(c1cccs1)Nc1ccc3ncccc3c12 (stereo not drawn)	–	inconclusive: 1 µM [activator, partial curve, poor fit]
